Test results reported in the BET-seq Pho4 binding data (Le et al. 2018).
Some of the results follow. The energies were worked out here from pooled read counts, against the library average; single values are noisy.

Biological target: T1, Pho4 (S. cerevisiae) (UniProt P07270)
T1 sequence: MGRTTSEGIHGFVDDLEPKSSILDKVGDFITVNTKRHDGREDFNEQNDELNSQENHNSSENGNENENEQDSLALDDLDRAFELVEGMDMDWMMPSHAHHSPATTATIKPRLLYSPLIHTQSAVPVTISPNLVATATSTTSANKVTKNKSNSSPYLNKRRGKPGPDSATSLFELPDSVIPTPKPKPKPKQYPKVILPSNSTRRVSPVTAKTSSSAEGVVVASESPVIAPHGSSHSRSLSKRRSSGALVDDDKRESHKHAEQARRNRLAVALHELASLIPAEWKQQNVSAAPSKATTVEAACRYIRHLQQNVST
Experiment: relative binding free energy (BET-seq); higher = weaker binding
Details: reference: library average

Sequence	relative binding free energy
ATAAGCACGTGAAGTT	0.14 kcal/mol
GAATGCACGTGAGTCG	0.4 kcal/mol
GGGGGCACGTGCTATG	-0.13 kcal/mol
ATTACCACGTGTAGTT	0.05 kcal/mol
ATAGGCACGTGTGTTG	-0.05 kcal/mol
ATGCGCACGTGTTAAA	0.08 kcal/mol
TTGGTCACGTGTGGTA	0.17 kcal/mol
TGTGACACGTGGCGTG	-0.14 kcal/mol
TGTTTCACGTGTCGGC	0.29 kcal/mol
TGATACACGTGTTGGT	0.02 kcal/mol
AGAAGCACGTGGCTTT	-0.01 kcal/mol
GGGAGCACGTGTAGGA	-0.15 kcal/mol
GTAGGCACGTGAGAAT	0.13 kcal/mol
TGTGACACGTGGCATT	-0.08 kcal/mol
TGTTACACGTGGAGAA	0.12 kcal/mol
CCGCACACGTGGGGGG	-0.05 kcal/mol
TGTTGCACGTGAGGAG	0.24 kcal/mol
ACTTTCACGTGTATTT	0.13 kcal/mol
TTTCGCACGTGGGTGA	-0.1 kcal/mol
GAAATCACGTGGCGGT	0.18 kcal/mol
AATTCCACGTGGGTGT	-0.03 kcal/mol

Sequence	relative binding free energy
GTCTGCACGTGCGGTT	0.12 kcal/mol
AAAAGCACGTGTGGTT	-0.03 kcal/mol
ACGGTCACGTGTTTGA	0.17 kcal/mol
ATCTTCACGTGATGGG	0.23 kcal/mol
AGTTACACGTGGACAG	0.27 kcal/mol
AGAAACACGTGGGTTT	0.04 kcal/mol
TGTGGCACGTGCTTAG	-0.24 kcal/mol
GTAGTCACGTGGCTCT	0.15 kcal/mol
TGGGGCACGTGCAATG	-0.11 kcal/mol
TGGAGCACGTGTTGGC	0.04 kcal/mol
AAATTCACGTGTTGTA	0.36 kcal/mol
GGGTCCACGTGGTCAT	0.11 kcal/mol
CTGGGCACGTGTATTT	0.1 kcal/mol
ATGTGCACGTGAATCG	0.14 kcal/mol
GGCAGCACGTGAGGTA	0.17 kcal/mol
CTTTACACGTGAGGTT	0.29 kcal/mol
CTGCACACGTGTGTGG	-0.05 kcal/mol
TGCTACACGTGGGTGC	0.05 kcal/mol
CAAGTCACGTGTGTGG	0.15 kcal/mol
TCCTGCACGTGAGGGT	0.13 kcal/mol
GGTCACACGTGGTCGG	0.06 kcal/mol

Sequence	relative binding free energy
TGGTACACGTGTACTG	0.1 kcal/mol
AAAGTCACGTGGTAAT	-0.03 kcal/mol
CTCAGCACGTGTGTGG	-0.18 kcal/mol
CTGGTCACGTGGGATT	0.08 kcal/mol
TTAGTCACGTGTGTCG	0.21 kcal/mol
TGAAGCACGTGCTAGT	-0.14 kcal/mol
AATTGCACGTGACGGT	-0.05 kcal/mol
AATTGCACGTGATTTT	0.09 kcal/mol
CTAATCACGTGAGTTG	0.27 kcal/mol
GTTGTCACGTGTTTGA	0.06 kcal/mol
AATGCCACGTGTGGGT	-0.05 kcal/mol
AGGTACACGTGGTGTG	-0.13 kcal/mol
ATAGGCACGTGGTTCT	-0.32 kcal/mol
GTGCACACGTGTTTTT	0.3 kcal/mol
GCAAGCACGTGGTAGT	-0.12 kcal/mol
CATGGCACGTGAGATT	0.25 kcal/mol
GGTGTCACGTGTTGGC	0.12 kcal/mol
TCCGTCACGTGTAGTG	0.13 kcal/mol
GGCGACACGTGGGGCA	-0.08 kcal/mol
AAAGGCACGTGTGCGG	-0.27 kcal/mol
CGTTCCACGTGTTGGG	0.22 kcal/mol
